# The whole screen tested about 310,000 compounds, of which about 2,200 (0.71%) showed an effect of 50% or more. The effect is printed as a negative number. This is one part of the list.
# Biological target: human ether-à-go-go-related gene (hERG) potassium channel (human, UniProt Q12809)
# Assay: primary screen, population patch clamp on CHO cells stably expressing hERG
# human ether-à-go-go-related gene (hERG) potassium channel, sequence (Q12809 whole entry, looked up): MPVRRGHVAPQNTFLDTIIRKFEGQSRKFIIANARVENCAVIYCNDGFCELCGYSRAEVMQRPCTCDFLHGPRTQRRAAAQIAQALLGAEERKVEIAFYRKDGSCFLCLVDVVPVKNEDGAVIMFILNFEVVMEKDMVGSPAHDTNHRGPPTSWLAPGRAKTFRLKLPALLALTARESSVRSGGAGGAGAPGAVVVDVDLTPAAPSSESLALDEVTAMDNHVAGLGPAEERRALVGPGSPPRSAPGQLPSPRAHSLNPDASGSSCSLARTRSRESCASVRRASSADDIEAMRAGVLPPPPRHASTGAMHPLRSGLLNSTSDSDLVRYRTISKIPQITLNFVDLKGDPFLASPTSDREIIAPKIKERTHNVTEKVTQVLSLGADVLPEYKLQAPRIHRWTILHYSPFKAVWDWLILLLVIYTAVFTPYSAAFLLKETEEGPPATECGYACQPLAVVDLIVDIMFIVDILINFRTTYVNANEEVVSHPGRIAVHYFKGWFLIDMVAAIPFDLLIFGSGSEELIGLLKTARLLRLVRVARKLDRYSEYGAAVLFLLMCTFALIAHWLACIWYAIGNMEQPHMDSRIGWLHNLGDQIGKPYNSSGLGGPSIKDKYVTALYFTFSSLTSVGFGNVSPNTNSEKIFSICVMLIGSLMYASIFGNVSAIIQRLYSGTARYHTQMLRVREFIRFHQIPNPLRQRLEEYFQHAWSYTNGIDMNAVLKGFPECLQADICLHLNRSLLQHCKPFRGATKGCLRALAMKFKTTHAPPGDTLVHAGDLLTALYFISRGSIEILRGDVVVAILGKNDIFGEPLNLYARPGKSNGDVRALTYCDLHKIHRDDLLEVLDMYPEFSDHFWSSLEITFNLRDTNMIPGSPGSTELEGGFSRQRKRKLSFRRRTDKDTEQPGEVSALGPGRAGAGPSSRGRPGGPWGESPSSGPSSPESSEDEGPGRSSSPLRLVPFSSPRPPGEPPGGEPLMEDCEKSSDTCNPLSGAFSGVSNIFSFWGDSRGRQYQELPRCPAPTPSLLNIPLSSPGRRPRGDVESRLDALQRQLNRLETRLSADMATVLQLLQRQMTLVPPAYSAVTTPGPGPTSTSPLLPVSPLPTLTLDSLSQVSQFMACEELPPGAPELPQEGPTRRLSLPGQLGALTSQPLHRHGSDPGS
row,Compound,"hERG current change (%, negative = inhibition) at 1uM [%]"
1,COc1ccccc1/C=C1/C(=O)N(c2cc(C)cc(C)c2)C(c2cccc([N+](=O)[O-])c2)S1(=O)=O (stereo not shown),8.91
2,CC(C)C(=O)NC(=S)N(Cc1ccccc1)Cc1ccccc1,5.69
3,CCCC(=O)OCC(=O)Nc1ccccc1Sc1ccccc1,11.1
4,Cc1nn(Cc2c(Cl)cccc2Cl)c(C)c1C(=O)NCc1ccc(C)n1C,10.9
5,O=C(COC(=O)Cc1n[nH]c(=O)c2ccccc12)Nc1ccc(Cl)cc1F,9.45
6,O=C(CNC(=O)c1ccc(Cl)cc1)OCC(=O)c1ccc2c(c1)OCCO2,5.82
7,CN1CCN(C(=O)C2CCN(S(=O)(=O)c3cnc[nH]3)CC2)CC1,9.97
8,O=C(N/N=C/c1cccc(F)c1)c1cc(-c2ccco2)nc2ccccc12,10.3
9,O=C(CN1C(=O)C2C3C=CC(C3)C2C1=O)NCc1ccc2c(c1)OCO2 (stereo not shown),11.4
10,COc1ccc(CN(C)C(=O)Cc2ccc(OC)c(S(=O)(=O)N3CCOCC3)c2)cc1,2.67
11,COc1ccc(OC)c(NP(=O)(Oc2ccc(Cl)cc2)Oc2ccc(Cl)cc2)c1,9.77
12,CC(Cc1ccccc1)C(=O)N1CCN(C)CC1 (stereo not shown),7.74
13,CC(=O)N1c2ccc(S(=O)(=O)N3CCCC(C(=O)NCc4ccccc4Cl)C3)cc2CC1C (stereo not shown),8.84
14,CCOC(=O)c1c(NC(=O)Cn2nc([N+](=O)[O-])c(Br)c2C)sc2c1CCC(C)C2 (stereo not shown),7.71
15,CCCCc1[nH]c(=O)c(C#N)c2c1CSC(C)(C)C2,20.1
16,CC(C)(C)OC(=O)N[C@@H](Cc1ccccc1)C(=O)NCC1CCC(C(=O)N[C@@H](CC(=O)O)C(=O)O)CC1 (stereo partly shown),20.9
17,COCCNC(=O)CN(CCc1ccccc1)S(=O)(=O)c1ccc(Br)cc1,10.1
18,CSc1ncccc1C(=O)OCC(=O)c1cccc(Br)c1,5.99
19,COc1ccc(N(CC(O)Cn2c(C)nc3ccccc32)S(=O)(=O)c2ccc(C)cc2)cc1 (stereo not shown),0.744
20,Nc1c2c(nc3sc4c(c13)CCCCC4)CCCCC2,-11
21,COc1ccc(CCNC(=O)/C=C/c2ccc(S(=O)(=O)N3CCOCC3)cc2)cc1,-19.4
22,COc1ccc(-c2oc3ncn4nc(COc5ccccc5)nc4c3c2-c2ccc(OC)cc2)cc1,-1.56

row,Compound,"hERG current change (%, negative = inhibition) at 1uM [%]"
1,Nc1[nH]c2cc([N+](=O)[O-])ccc2c1-c1ccccn1,15.8
2,Cc1nc(SCc2ccccc2F)c2oc3ccccc3c2n1,17.7
3,Cc1cccc(/C=C/c2onc(C)c2S(=O)(=O)N2CCC(C(=O)N3CCCCC3)CC2)c1,16.7
4,Cc1cccc2sc(N(CCCN(C)C)C(=O)CN3C(=O)c4ccccc4C3=O)nc12.Cl,9.95
5,COC(=O)C1=C(C)NC(C)=C(C(=O)OC)C1C(=O)OC1CCCCC1=O (stereo not shown),11.6
6,O=CN1CCN(C(=O)c2ccc3c(c2)OCO3)CC1,10.3
7,CCCc1cc(=O)[nH]c2nnc(SCC(=O)Nc3nccs3)n12,6.79
8,O=C(Oc1ccc2c3c(c(=O)oc2c1)CCC3)c1ccccc1[N+](=O)[O-],3.77
9,Cc1ccc(S(=O)(=O)NC(=O)NCCCCNC(=O)NS(=O)(=O)c2ccc(C)cc2)cc1,-4.19
10,CC(C)N(Cc1nc(-c2ccc(Cl)cc2)no1)C(=O)C(c1ccccc1)c1ccccc1,2.68
11,Cc1cc(NC(=O)C2CCCN(S(=O)(=O)c3c(C)noc3C)C2)no1 (stereo not shown),17.4
12,COc1ccc(N2CCN(c3nc(=S)n(-c4ccccc4)c(C)c3C(C)=O)CC2)cc1,10.2
13,O=C(NNC(=O)C1CC(=O)N(c2ccc3c(c2)OCCO3)C1)c1ccc(F)cc1 (stereo not shown),3.92
14,Cc1ccc(N=C2NC(=O)/C(=C/c3cccn3C)S2)cc1,6.27
15,Cc1ccccc1CN(C)CC(=O)Nc1cccc(S(=O)(=O)N(C)c2ccccc2)c1,5.5
16,O=C(OCc1csc(-c2ccccc2)n1)C1=NN(c2ccccc2)C(=O)CC1,11.3
17,CC(C)n1c(SCC(=O)N2CCN(C(=O)c3ccco3)CC2)nc2c1c(=O)n(C)c(=O)n2C,-29.4
18,Cc1[nH]c2c(C)cccc2c1CN1CCC(CO)(Cc2ccccc2)CC1,-11.4
19,COC(=O)CCC(=O)Nc1cc(S(=O)(=O)Nc2ccc(Cl)cc2)ccc1N1CCOCC1,-5.33
20,CC(C)(C)C(=O)Nc1ccccc1C(=O)OCC(=O)c1ccc2c(c1)OCCO2,11.3
21,COc1ccc(CCN2CC(C(=O)OC(C)C(=O)Nc3cccc(Cl)c3)CC2=O)cc1OC (stereo not shown),3.22

# From paper PMC4336329 (PLoS ONE, 2015)
